Here are results for 58 compounds from PubChem BioAssay AID360 (National Center for Advancing Translational Sciences (NCATS), 2006).

The campaign covered roughly 48,000 compounds. About 550 (1.1%) were called active. Inconclusive results (about 4%) are left out. No stated cut-off is given here; in the data, active means potency below about 15 µM; inconclusive means mostly about 16 µM to 33 µM; inactive means weaker than that. The list shows a part of the results. Bounds are passed on as bounds.
Potency means the concentration at half of the fitted maximal effect.

Chain of UniProt P04062 (P04062 whole entry, looked up): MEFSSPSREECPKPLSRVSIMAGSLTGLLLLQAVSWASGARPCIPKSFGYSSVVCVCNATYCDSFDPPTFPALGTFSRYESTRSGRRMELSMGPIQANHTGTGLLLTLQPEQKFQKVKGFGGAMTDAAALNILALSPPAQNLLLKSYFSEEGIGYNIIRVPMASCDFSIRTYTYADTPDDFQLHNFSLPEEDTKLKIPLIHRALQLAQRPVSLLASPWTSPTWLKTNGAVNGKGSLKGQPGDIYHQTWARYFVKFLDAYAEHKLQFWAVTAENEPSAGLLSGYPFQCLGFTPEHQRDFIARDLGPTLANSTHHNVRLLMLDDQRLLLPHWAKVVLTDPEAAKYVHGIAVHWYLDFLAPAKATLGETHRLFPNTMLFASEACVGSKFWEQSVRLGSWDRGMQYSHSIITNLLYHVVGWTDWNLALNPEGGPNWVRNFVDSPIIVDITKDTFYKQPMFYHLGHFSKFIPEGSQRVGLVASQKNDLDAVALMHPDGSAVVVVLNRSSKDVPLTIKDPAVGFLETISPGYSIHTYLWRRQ

The assay concerns the target Lysosomal acid glucosylceramidase (Homo sapiens) (UniProt P04062). Nature of the assay: Glucocerebrosidase.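 Further: the screen sought inhibitors.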 The settings on record: purified enzyme, resorufin glucoside fluorescence (screen aimed at inhibitors), 20 min; series mostly up to 77 µM. In outline:
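Compounds titrated against 0.2 nM normal enzyme, 30 uM resorufin beta-D-glucopyranoside substrate, citrate/phosphate buffer with taurocholate and tween-20, pH 5.9. Reaction ran 20 min at room temperature; fluorescence (Ex 548/Em 600) gave AC50.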
Consider `O=C(NCc1ccc2c(c1)OCO2)c1ccccn1`, for which the Potency was inactive: > 76.9 µM.
To `CCOC(=O)c1ccccc1NC(=O)CC1SC(=NC)N(C)C1=O` (stereo not drawn) belongs inactive: > 76.9 µM; to `Cc1nn(-c2ccccc2)c2sc(C(=O)N(Cc3ccco3)C(C)C(=O)NC(C)(C)C)cc12` (stereo not drawn), “inactive”.
For `CC(=O)c1ccc(OCCCC(=O)n2nnc3ccccc32)cc1` the value was inactive: > 76.9 µM.
For `O=C(CSc1nnc(-c2ccco2)o1)NC1CCCCCC1` the value was inactive: > 76.9 µM.
Take `CCOC(=O)c1c(C)c(C(=O)NCC2CCCO2)c(C)n1CC` (stereo not drawn): the Potency was inactive: > 76.9 µM.
Consider `CCOC(=O)c1nnn(CC(=O)Nc2cccc(F)c2)c1C(=O)OCC`, for which the Potency is inactive: > 76.9 µM.
Turning to `C=CCn1c(=O)/c(=C/c2ccc(F)cc2)s/c1=C(\C#N)c1nnc2n1CCCCC2`, the Potency result was “inactive”.
`O=C(Nc1cccc(-c2nc3cccnc3s2)c1)c1ccco1`: the Potency is inactive: > 76.9 µM.
For `Cc1ccc(C(C(=O)NCCc2ccccc2)N(C(=O)c2csnn2)C2CC2)o1` (stereo not drawn) the value was inactive: > 76.9 µM; for `COc1ccccc1C(=O)Nc1ccc(C(=O)O)cc1`, inactive: > 76.9 µM.
For `C=CCOc1ccc(C(=O)N(Cc2ccc(N(C)C)cc2)C2CCS(=O)(=O)C2)cc1` (stereo not drawn) the value was inactive: > 76.9 µM; for `COc1ccc(CCNC(=O)CCNS(=O)(=O)c2ccc3c(c2)CCN3C(C)=O)cc1OC`, inactive: > 76.9 µM; for `Cc1cc(=O)[nH]c(SCC(=O)N2CCN(C(c3ccccc3)c3ccccc3)CC2)n1`, inactive: > 76.9 µM.
To `CC1C2C(c3ccccc3)N(C)C(=O)N(C)C2N(C)C(=O)N1C` (stereo not drawn) belongs inactive: > 76.9 µM.
For `CC1(C)CC(=O)C(C(=O)CCCCC(=O)C2C(=O)CC(C)(C)CC2=O)C(=O)C1`, the Potency was inactive: > 76.9 µM.
For `Cc1cc(=O)[nH]c(SCC(=O)N2CCCCCC2)n1` the value was inactive: > 76.9 µM; for `CCOC(=O)c1c(NC(=O)CCC(=O)NCc2ccco2)sc2c1CCCC2`, inactive: > 76.9 µM; for `CCOC(=O)C1CCN(S(=O)(=O)c2nc3nc(C)cc(C)n3n2)CC1`, inactive: > 76.9 µM.
For `C=CCn1c(SCC(O)Cn2c3ccccc3c3ccccc32)nnc1-c1ccco1` (stereo not drawn) the value was inactive: > 76.9 µM; for `Cc1cccn2c(=O)c3cc(C(=O)NC(C)C)c(=N)n(Cc4ccncc4)c3nc12`, inactive: > 76.9 µM.
For `CCC(c1nnnn1Cc1ccc2c(c1)OCO2)N1CCN(c2ccc(F)cc2)CC1` (stereo not drawn) the value was inactive: > 76.9 µM.
Regarding `Cc1ccc2c(c1)N(CCC(=O)NCCCOC(C)C)C(=O)C(C)O2` (stereo not drawn), the Potency is inactive: > 76.9 µM.
To `Cc1ccc2c(C)nc(NC3=NCN(Cc4ccccc4)CN3)nc2c1` belongs inactive: > 76.9 µM; to `COc1ccccc1-n1nnnc1SCc1ccccc1`, inactive: > 76.9 µM; to `COCCn1c(SCc2ccccc2Cl)nc2c1c(=O)[nH]c(=O)n2C`, inactive: > 76.9 µM.
To `COc1cc2[nH]c(=S)n(CC3CCCO3)c(=O)c2cc1OC` (stereo not drawn) belongs inactive: > 76.9 µM; to `O=C(NCC1CCCO1)c1csc2c1CCCC2` (stereo not drawn), inactive: > 76.9 µM; to `O=C(NCSc1ccncn1)c1ccccc1`, inactive: > 76.9 µM.
For `CCSCc1nnc(SCC(=O)c2ccc(OC)cc2)n1C`, the Potency was inactive: > 76.9 µM.
To `C=CCNc1nc(NCCN2CCOCC2)nc(OC)n1` belongs inactive: > 76.9 µM; to `N#Cc1ccccc1Sc1ccccc1C(=O)OCc1nnc(-c2ccccc2)o1`, inactive: > 76.9 µM; to `CCOC(=O)c1c(C)[nH]c(C(=O)Cn2c(=O)oc3ccccc32)c1C`, inactive: > 76.9 µM.
For `Cc1cccc(C(=O)O)c1NC(=O)c1ccc(F)cc1` the value was inactive: > 76.9 µM.
To `Cc1cc(C)c(NC(=O)CSc2nnc(-c3ccncc3)n2Cc2ccco2)c(Cl)c1` belongs inactive: > 76.9 µM; to `Nc1c(C2=NCCO2)nnn1Cc1ccccc1`, inactive: > 76.9 µM; to `Cc1cc(NC(=O)CCC(=O)N(CC(=O)NC2CCCC2)Cc2ccccc2Cl)no1`, inactive: > 76.9 µM.
As to `CCOC(=O)c1ccc(CNC(=O)Cn2nnc(-c3ccc(C)cc3)n2)o1`, the Potency was inactive: > 76.9 µM.
For `O=C(NCC(c1cccs1)N1CCOCC1)c1cc2ccccc2o1` (stereo not drawn) the value was inactive: > 76.9 µM.
For `COC(=O)CNc1nc(OC)nc(N(C)C)n1` the value was inactive: > 76.9 µM.
For `CCC(=O)N1CCN(C(=O)CC)C1c1ccccc1` the value was inactive: > 76.9 µM; for `O=C(Cn1ncn2c(cc3ccccc32)c1=O)NCCC1=CCCCC1`, inactive: > 76.9 µM.
With `O=C(OCC(=O)N1CCCC1)c1ccccc1OCc1ccccc1`, the Potency is inactive: > 76.9 µM.
For `Cc1ccoc1C(=O)NCCCNC(=O)c1occc1C` the value was inactive: > 76.9 µM; for `Fc1ccccc1Cn1nnc2c(NCCc3ccccn3)ncnc21`, inactive: > 76.9 µM.
For `CCOC(=O)C1=C(C)N(C)C(C)=C(C(=O)OCC)C1c1ccncc1` the value was inactive: > 76.9 µM; for `CCOC(=O)c1sc(N(Cc2ccccc2)C(=O)CSc2nnc(C3CC3)n2N)nc1C`, inactive: > 76.9 µM.
`C=CCc1ccccc1OCC(O)CN(C(C)C)C(C)C` (stereo not drawn): the Potency was inactive: > 76.9 µM.
With `N=c1n(CCN2CCCCC2)c2ccccc2n1CC(O)COc1ccccc1` (stereo not drawn), the Potency is inactive: > 76.9 µM.
For `Cc1cc(C(=O)CSc2nc3ccccc3[nH]2)c(C)n1C` the value was inactive: > 76.9 µM; for `CSc1nc(N)nc(SCC(=O)c2ccc(C)cc2)c1C#N`, inactive: > 76.9 µM; for `O=C(COc1cc(Cl)c(Cl)cc1Cl)NCCN1CCOCC1`, inactive: > 76.9 µM.
For the compound `O=C(NCC1CCCO1)c1ccc(S(=O)(=O)N2CCCCC2)cc1` (stereo not drawn), the Potency is inactive: > 76.9 µM.
For the compound `COCCNc1cc(C)nc2c3c(C)cc(C)nc3nn12`, the Potency is inactive: > 76.9 µM.
For `CCCNc1nc2c(c(=O)[nH]c(=O)n2C)n1CCCc1ccccc1` the value was inactive: > 76.9 µM; for `Cc1ccc(S(=O)(=O)N2CCCC(C(=O)NCC3COCCO3)C2)cc1` (stereo not drawn), inactive: > 76.9 µM; for `COC(=O)Cn1c(CN2CCC(Cc3ccccc3)CC2)nc2c1c(=O)n(C)c(=O)n2C`, inactive: > 76.9 µM.
As to `Cc1ccc(Cn2nnc3c(=O)[nH]c(C4CCN(S(=O)(=O)c5ccc(F)cc5)CC4)nc32)cc1`, the Potency is active: 5.49 µM.
